# PubChem BioAssay AID1347073 (National Center for Advancing Translational Sciences (NCATS), 2019)
# About 200 (0.44%) of roughly 45,000 compounds were called active. Inconclusive results (about 7%) are left out. Calls follow the shape of the dose curve; as a rule, active = well fitted activation curve with a large enough effect; inconclusive = small, poorly fitted or top-dose-only effect; inactive = no such curve, though single readings can be large or run the other way. The list shows a part of the results.
# Assay: qHTS of TDP-43 Inhibitors: NCGC Sytravon Library Screen; also: nearly all actives have a fitted effect of over 55% in size; as to growth rescue (activation): 0% is about no effect
# Conditions: yeast TDP-43 toxicity rescue, BacTiter-Glo growth, 24 h; series mostly up to 46.1 µM; growth rescue (activation): at the top concentration
# Outline: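 TDP-43-expressing yeast, pregrown in raffinose, seeded at OD600 0.02 in galactose medium with compound for 24 hr at 30 deg C. Growth read by BacTiter-Glo luminescence, so rescue of toxicity appears as activation.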
# Potency is read from the fitted curve at half-maximal effect.
SMILES,growth rescue (activation),Potency
O=C(c1ccc(-n2cnnn2)cc1)N1CCOCC1,inactive: -1.5%,
CC1(C(=O)NCc2ccccc2Br)CCN1Cc1ccc2ccccc2c1 (centres undefined),inactive: 4.91%,
COc1ccc(NS(=O)(=O)c2cccc(NC(=O)C34CCC(CC3)C4)c2)cc1,inactive: 15.1%,
Cc1ccc(S(=O)(=O)N2CCCCC2)cc1C(=O)NCC1CCCO1 (centres undefined),inactive: -7.56%,
COc1cccc(C(=O)NNC(=O)C(=O)Nc2ccc(C)c(Cl)c2)c1,inactive: 6.2%,
CCOc1ccc(N(CC(=O)Nc2c(C)n(C)n(-c3ccccc3)c2=O)S(=O)(=O)c2ccc(F)cc2)cc1,inactive: 7.64%,
COc1ccc(NC(=O)CN(C)CC(=O)Nc2ccccc2SC)cc1Cl,inactive: -6.14%,
CCCCCC1CCC(c2ccc(C(N)=O)cc2)CC1 (centres undefined),inactive: 19.5%,
C=CCOc1ccc(CNCCc2ccc(S(N)(=O)=O)cc2)cc1,inactive: -5.33%,
CC(NS(=O)(=O)c1ccc(Br)cc1)C(=O)NCc1ccco1 (centres undefined),inactive: -15.8%,
O=C(CCNS(=O)(=O)c1ccc(Cl)cc1)NCc1cccs1,inactive: 3.91%,
COc1ccc(C2CC(=O)C3=C(C2)Nc2ccccc2NC3c2coc3ccccc3c2=O)cc1OC (centres undefined),inactive: -5.75%,
C/C(CC(=O)Nc1cccc(Cl)c1Cl)=N\NC(=O)C(=O)N1CCCC1,inactive: 2.5%,
COc1ccc(CN(Cc2ccc(C(=O)O)cc2)C(=S)Nc2cccc(C)c2)cc1OC,inactive: -3.41%,
Cc1ccc(C(=O)O)cc1S(=O)(=O)Nc1ccccc1C(=O)NC1CC1,inactive: 17.1%,
CCOc1ccc(NC(=O)C2=C(C)C(=O)OC23CCC(C)CC3)cc1 (centres undefined),,active: 12.6 µM
CNc1ccc(S(=O)(=O)NCC(=O)OCC(=O)Nc2cccc(Cl)c2Cl)cc1[N+](=O)[O-],inactive: 8.49%,
CC(C)Cc1[nH]c(=O)c(C#N)c2c1COC(C)(C)C2,inactive: -3.41%,
O=C(CSc1ncn[nH]1)Nc1ccccc1Sc1ccc(Cl)cc1,inactive: 18.6%,
CN(CC(=O)Nc1ccccc1C(F)(F)F)C(=O)CSc1nnnn1C,inactive: -6.4%,
CCOc1ccc2[nH]c(=O)c(CN(CC3COCCO3)C(=O)C3CC3)cc2c1 (centres undefined),inactive: 30.8%,
COc1ccc(CC(=O)NNc2ncnc3c2cnn3-c2ccc(C)cc2)cc1OC,inactive: 2.72%,
CCNS(=O)(=O)c1ccc(CCC(=O)NCCc2ccc(OC)cc2)cc1,inactive: 7.89%,

SMILES,growth rescue (activation),Potency
O=C(O)C1CC(O)CN1S(=O)(=O)c1ccc2ccccc2c1 (centres undefined),inactive: 20.8%,
CCCOc1c(Br)cc(C2C3=C(CCCC3=O)N(CC)C3=C2C(=O)CCC3)cc1OC,inactive: 34.7%,
CC(C)CC1NC(=O)N(Cc2nc3ccccc3s2)C1=O (centres undefined),inactive: 11.6%,
O=c1[nH]c2sc3c(c2c(=O)n1Cc1ccccc1)CCC3,inactive: -3.27%,
Cc1c(C(=O)O)cccc1-c1ccc(C=O)o1,inactive: 17.9%,
COc1cccc(NC(=O)NC2(C(=O)N3CCC(O)CC3)CCCCC2)c1,inactive: 15.2%,
COc1ccc(CCNC(=O)CSCc2ccc(F)cc2)cc1OC,inactive: 5.01%,
COc1ccc(N=C2NC(=O)S/C2=C\c2ccc(N(C)C)cc2)cc1,inactive: -1.5%,
Cc1c(C)c2ccc(OCC(=O)N3CCOCC3)c(C)c2oc1=O,inactive: 3.3%,
COC(=O)N/N=C\c1cc2c(cc1Br)OCO2,inactive: -6.55%,
COC(=O)c1ccc(Nc2cc(C)nc3ccccc23)cc1,inactive: 12%,
CC(OC(=O)c1ccc(S(=O)(=O)NCc2ccco2)cc1)C(=O)Nc1ccc(Cl)cn1 (centres undefined),inactive: -18.1%,
O=S(=O)(c1ccccc1)N(CC(O)CN1CCCC1)c1ccccc1 (centres undefined),inactive: -7.86%,
O=C(c1cccc(Br)c1)N1CCN(c2cnn(-c3ccccc3)c(=O)c2Cl)CC1,inactive: 20.3%,
CCOCCCNC(=O)c1cn(CC(C)C)c(=O)c2c1c1ccccc1n2C,inactive: 7.15%,
Cc1ccc(S(=O)(=O)N(CC(=O)Nc2ccccc2C(=O)O)c2ccccc2C)cc1,inactive: -2.12%,
C=CCn1c(SCC(=O)NC2CCCCC2)nnc1-c1cccnc1,inactive: 6.95%,
O=C(NCc1ccccc1)NC(O)C(Cl)(Cl)Cl (centres undefined),inactive: -10.6%,
COCCNC(=O)C1(C)CCCN(Cc2ccc(-c3ccccn3)cc2)C1 (centres undefined),inactive: 0.297%,
Cc1ccc(C)n1-c1nccc(-c2ccco2)n1,inactive: 28.1%,
COc1cccc(OC)c1OCCN1CCC(C(=O)NC(c2ccc3c(c2)OCO3)c2ccccn2)CC1 (centres undefined),inactive: -8.67%,
O=C(NCc1ccc(Cl)cc1)c1nccnc1CO,inactive: 4%,
N#C/C(=C\c1ccccc1)C(=O)Nc1cc(S(=O)(=O)N2CCOCC2)ccc1N1CCCC1,inactive: -6.43%,

SMILES,growth rescue (activation),Potency
CC(=O)Nc1ccc(/C=C2/Sc3ccccc3C2=O)cc1,inactive: 0.867%,
COc1cccc(NC(=O)c2cc(Cl)nnc2Cl)c1,inactive: -7.07%,
COc1ccc(S(=O)(=O)N2CCCC(C(=O)NCc3ccc(F)cc3)C2)cc1 (centres undefined),inactive: 1.06%,
Cc1ccc(C)c2[nH]c(=O)c(CN(CCCN(C)C)C(=O)NCc3ccccc3)cc12,inactive: -9.42%,
COc1ccc(-n2ccnc2CN2CCCC(CO)(Cc3cccc(OC)c3)C2)cc1 (centres undefined),inactive: 6.49%,
Cc1cc2oc(=O)cc(CN3CCCCC3C)c2cc1C(C)C (centres undefined),inactive: 0.232%,
O=C(Nc1nc2ccccc2s1)c1ccc(OCC2CCCO2)cc1 (centres undefined),inactive: 26%,
COc1ccc(NC(=O)c2nnn(CC(=O)Nc3cccc(C)c3C)c2N)c(OC)c1,inactive: 3.9%,
NC(=O)Nc1ccc(Cl)cc1,inactive: 5.16%,
CSc1ccccc1NC(=O)COC(=O)c1ccccc1Cc1ccccc1,inactive: 2.33%,
CCN(CC)c1ccc(N=C2C(=O)Nc3ccccc32)cc1,inactive: -5.98%,
CCNC(=O)c1cc(Cl)ccc1OC,inactive: 22.3%,
COc1nnc(-c2ccc(C)c(S(=O)(=O)NCC3CCCO3)c2)c2ccccc12 (centres undefined),inactive: -8.58%,
COCCCN1C(=O)C(=O)/C(=C(/O)c2ccc3c(c2)OCCO3)C1c1ccc(C(=O)OC)cc1 (centres undefined),inactive: 4.17%,
CCOc1ccc(CN2C(=O)C(=O)c3cccc(C)c32)cc1OC,inactive: -18.4%,
COc1ccc(C(=O)NCC(=O)N2CCN(C(=O)c3ccco3)CC2)cc1[N+](=O)[O-],inactive: -2.35%,
Cc1cc(Br)ccc1N=C1NC(=O)CS1,inactive: 11.3%,
Cc1c(NC(=O)c2ccc(S(=O)(=O)N(C)c3ccccc3)cc2)c(=O)n(-c2ccccc2)n1C,inactive: -8.3%,
COc1ccc(/C=C/C(=O)Nc2cccc(F)c2)cc1S(=O)(=O)N1CCOCC1,inactive: 4.99%,
CN(CCc1ccccn1)C(=O)CCC1CCCN(C(=O)NC2CCCCC2)C1 (centres undefined),inactive: 3.84%,
CC1CCN(C(=O)COC(=O)c2n[nH]c3ccccc23)CC1,inactive: -19.3%,
COCCNC(=O)CCn1nc(-c2ccc(C)cc2)ccc1=O,inactive: 8.69%,
O=[N+]([O-])c1ccc(CN2C=NS(=O)(=O)c3ccccc32)cc1,inactive: 6.32%,
